Source: the supplement of paper PMC8512760
Counter-ions that a name gives are not always drawn. The list shows a part of the results. Most values come without repeats; read them as rough.

Key:
Test in all cases: cell viability relative to vehicle (% of vehicle); basal-like triple-negative breast cancer lines; higher = less cytotoxic
Conditions in all cases: 10 µM; 72 h
HCC-1143 = system: HCC-1143
HCC-1187 = system: HCC-1187
MDA-468 = system: MDA-468
SUM-149 = system: SUM-149
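Also: stably firefly luciferase-GFP labeled cells in 96-well plates, viability read as luciferase photon flux after d-luciferin addition, treated wells normalized to vehicle wells, single-dose high-throughput screen.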

SMILES	cell viability (HCC-1143)	cell viability (HCC-1187)	cell viability (MDA-468)	cell viability (SUM-149)
NC(=O)C1CCCc2c1[nH]c1ccc(Cl)cc21 (stereo not given)	98.9	102	63.5	146
CO[C@@]12[C@H](COC(N)=O)C3=C(C(=O)C(C)=C(N)C3=O)N1C[C@@H]1N[C@@H]12 [Mitomycin C]	32.7	15.3	26.3	32.6
NCCC(O)C(=O)NC1CC(N)C(OC2OC(CN)C(O)C(O)C2O)C(O)C1OC1OC(CO)C(O)C(N)C1O (stereo not given) [Amikacin]	74.6	72.5	121	127
CCN(CC)CCNC(=O)c1ccc(N)cc1.Cl [Procainamide HCl]	84.3	91.3	97.1	95.8
OC[C@@H](O)[C@@H](O)[C@H](O)[C@@H](O)CO [D-Sorbitol]	69.6	87.5	118	99
COc1ccc2[n-]c(S(=O)Cc3ncc(C)c(OC)c3C)nc2c1.COc1ccc2[n-]c(S(=O)Cc3ncc(C)c(OC)c3C)nc2c1.[Mg+2] (stereo not given) [Esomeprazole Magnesium]	125	82.3	101	137
C#Cc1cccc(Nc2ncnc3cc(OCCOC)c(OCCOC)cc23)c1.Cl [Erlotinib Hydrochloride]	131	95	97.4	87.5
CCC1OC(=O)C(C)C(OC2CC(C)(OC)C(O)C(C)O2)C(C)C(OC2OC(C)CC(N(C)C)C2O)C(C)(O)CC(C)C2NC(COCCOC)OC(C2C)C1(C)O (stereo not given) [Dirithromycin]	62.1	82	95.7	87
COc1ccccc1OCC(O)CN1CCN(CC(=O)Nc2c(C)cccc2C)CC1 (stereo not given) [Ranolazine]	75.1	106	116	103
CC1C=CC=CC=CC=CC=CC=CC=CC(OC2OC(C)C(O)C(N)C2O)CC2OC(O)(CC(O)CC(O)C(O)CCC(O)CC(O)CC(=O)OC(C)C(C)C1O)CC(O)C2C(=O)O (stereo not given) [Amphotericin B]	69.6	93	115	112
C=C1CCN(C(C)C(O)(Cn2cncn2)c2ccc(F)cc2F)CC1 (stereo not given) [Efinaconazole]	97.8	94.2	104	108
Cn1c(=O)cc(N2CCCC(N)C2)n(Cc2ccccc2C#N)c1=O (stereo not given) [Alogliptin (SYR-322)]	99.4	102	102	105
Cc1ccc(-n2[nH]c(C)c(NN=C3C=CC=C(c4cccc(C(=O)O)c4)C3=O)c2=O)cc1C [Eltrombopag]	81.7	82.2	92.9	115
COc1ccc(-c2nc3ccc(C4=NNC(=O)CC4C)cc3[nH]2)cc1 (stereo not given) [Pimobendan]	91.3	83	84.2	104
CC(NCCCc1cccc(C(F)(F)F)c1)c1cccc2ccccc12 (stereo not given) [Cinacalcet]	109	71.1	88.8	90.6
CCCC(CCC)C(=O)O.CCCC(CCC)C(=O)[O-].[Na+] [Divalproex Sodium]	95.5	95.9	108	133
COc1nc(N)nc2c1ncn2C1OC(CO)C(O)C1O (stereo not given) [Nelarabine]	81.8	89	80.9	98
Cl.OC(c1cc(C(F)(F)F)nc2c(C(F)(F)F)cccc12)C1CCCCN1 (stereo not given) [Mefloquine hydrochloride]	86.5	30.4	46.9	85.2
Nc1ccc(S(=O)(=O)Nc2ncccn2)cc1 [Sulfadiazine]	79.6	115	119	106
COc1ccc(C2CNC(=O)C2)cc1OC1CCCC1 (stereo not given) [Rolipram]	88.5	89.8	94.4	124
CC1=C2N=C(C=C3N=C(C(C)=C4[N-]C(C)(C5N=C1C(C)(CCC(=O)NCC(C)OP(=O)([O-])OC1C(CO)OC(n6cnc7cc(C)c(C)cc76)C1O)C5CC(N)=O)C(C)(CC(N)=O)C4CCC(N)=O)C(C)(CC(N)=O)C3CCC(N)=O)C(C)(C)C2CCC(N)=O.[CH3-].[Co+3] (stereo not given) [Methylcobalamin]	77.9	89.4	117	124
CC(C(=O)O)c1cccc(Oc2ccccc2)c1 (stereo not given) [Fenoprofen calcium hydrate]	107	115	104	92.1
CC1OC(OCC2OC(Oc3c(-c4ccc(O)c(O)c4)oc4cc(O)cc(O)c4c3=O)C(O)C(O)C2O)C(O)C(O)C1O (stereo not given) [Rutin]	121	98.4	108	119
O=C(NN=Cc1ccc([N+](=O)[O-])o1)c1ccc(O)cc1 [Nifuroxazide]	74.2	76.3	66.6	101
O=C(C=Cn1cnc(-c2cc(C(F)(F)F)cc(C(F)(F)F)c2)n1)NNc1cnccn1	27.7	23	34.4	34.1

SMILES	cell viability (HCC-1143)	cell viability (HCC-1187)	cell viability (MDA-468)	cell viability (SUM-149)
CCCCOc1cc(C(=O)NCCN(CC)CC)c2ccccc2n1.Cl [Dibucaine (Cinchocaine) HCl]	84.9	97.3	101	89.6
CCN(Cc1ccncc1)C(=O)C(CO)c1ccccc1 (stereo not given) [Tropicamide]	84.8	87.9	93.2	122
CN(N=O)C(=O)NC1C(O)OC(CO)C(O)C1O (stereo not given) [Streptozocin]	78.6	81.4	91.9	100
CC(C)OC(=O)C(C)(C)Oc1ccc(C(=O)c2ccc(Cl)cc2)cc1 [Fenofibrate]	102	120	87.9	108
O=C(O)c1cc(=O)[nH]c(=O)[nH]1 [Orotic acid]	75.4	88.9	117	98.6
Clc1ccc(C(Cn2ccnc2)OCc2ccc(Sc3ccccc3)cc2)c(Cl)c1.O=[N+]([O-])O (stereo not given) [Fenticonazole Nitrate]	90.1	85	93.1	95.7
Br.CN(C)CCC[C@]1(c2ccc(F)cc2)OCc2cc(C#N)ccc21 [Citalopram hydrobromide]	86.7	102	134	113
COc1ccc2[nH]cc(CCNC(C)=O)c2c1 [Melatonin]	96.2	75.2	92.3	102
COC(=O)C1=C(C)NC(C)=C(C(=O)OC2CCCN(Cc3ccccc3)C2)C1c1cccc([N+](=O)[O-])c1.Cl (stereo not given) [Benidipine HCl]	86	85.9	92.3	105
CNCCc1ccccn1.Cl.Cl [Betahistine 2HCl]	80.5	98.9	97.4	109
CCCCC(=O)OC1CCC2C3CCc4cc(O)ccc4C3CCC12C (stereo not given) [Estradiol valerate]	77.1	106	93.7	93.4
C[N+](C)(C)CC(O)CC(=O)[O-] [L-Carnitine inner salt]	98.6	87.6	121	112
CCc1cc(C(C)=NOCc2ccc(C3CCCCC3)c(C(F)(F)F)c2)ccc1CN1CC(C(=O)O)C1 [BAF312 (Siponimod)]	74	78.7	89.1	88.3
COc1c(N2CCNC(C)C2)c(F)cc2c(=O)c(C(=O)O)cn(C3CC3)c12 (stereo not given) [Gatifloxacin]	101	99.4	98.8	94.8
CC[N+](CC)(CC)CCOc1cccc(OCC[N+](CC)(CC)CC)c1OCC[N+](CC)(CC)CC.[I-].[I-].[I-] [Gallamine Triethiodide]	75.3	84.8	120	101
CC(=O)O[C@H]1Cc2ccccc2N(C(N)=O)c2ccccc21 [Eslicarbazepine acetate]	73.3	82.8	119	102
C=CC(=O)N1CCCC(n2nc(-c3ccc(Oc4ccccc4)cc3)c3c(N)ncnc32)C1 (stereo not given)	105	58.6	55.8	71.5
O=C1CCCC(=O)C1C(=O)c1ccc(C(F)(F)F)cc1[N+](=O)[O-] [Nitisinone]	101	99.2	113	115
CCN(CCCc1ccccc1)CCCc1ccccc1.O=C(O)CC(O)(CC(=O)O)C(=O)O [Alverine Citrate]	82.5	88	102	90.7
CO[C@H]1C[C@@H]2CC[C@@H](C)[C@@](O)(O2)C(=O)C(=O)N2CCCC[C@H]2C(=O)O[C@H]([C@@H](C)C[C@@H]2CC[C@@H](OCCO)[C@H](OC)C2)CC(=O)[C@H](C)/C=C(\C)[C@@H](O)[C@@H](OC)C(=O)[C@H](C)C[C@H](C)/C=C/C=C/C=C/1C [Everolimus (RAD001)]	114	67.3	69.7	91
CN(C)Cc1c(C(=O)NCCOc2ccc(C(=O)NO)cc2)oc2ccccc12	48.5	40.1	70.4	6.09
O=S(=O)([O-])Oc1ccc(C(c2ccc(OS(=O)(=O)[O-])cc2)c2ccccn2)cc1.[Na+].[Na+] [Sodium Picosulfate]	85.2	80.8	94.9	102
NCCCC(O)(P(=O)([O-])O)P(=O)(O)O.O.O.O.[Na+] [Alendronate]	74.8	88.7	89.4	63.1
NCCS(=O)(=O)O [Taurine]	69.4	88.4	91.7	92.9
COc1cc2nccc(Oc3ccc(NC(=O)C4(C(=O)Nc5ccc(F)cc5)CC4)cc3)c2cc1OC	83.4	65	72.8	92
